{
  "source": "the supplement of paper PMC8728848",
  "binders": {"B1": {"name": "CLEC5A (Homo sapiens), Q9NY25 (protein)", "chain": "MNWHMIISGLIVVVLKVVGMTLFLLYFPQIFNKSNDGFTTTRSYGTVSQIFGSSSPSPNGFITTRSYGTVCPKDWEFYQARCFFLSTSESSWNESRDFCKGKGSTLAIVNTPEKLKFLQDITDAEKYFIGLIYHREEKRWRWINNSVFNGNVTNQNQNFNCATIGLTKTFDAASCDISYRRICEKNAK"}},
  "assay_in_all_cases": "glycan array binding signal (z-score within array); higher = stronger binding",
  "details_in_all_cases": "glycan notation: IUPAC condensed, linker removed",
  "key": {"[1]": {"biological_target": "GlcNAc(a1-4)Gal(b1-4)GalNAc", "in_short": "(§1)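 Glycan array data were curated from 3228 arrays in the Consortium for Functional Glycomics database and kept only where the protein sequence was available. Glycan names were converted to IUPAC-condensed notation, and columns mapping to the same glycan were averaged. The binding signal is a within-array Z-score, averaged across arrays of the same protein sequence at different concentrations or buffers and across linkers. Negative Z-scores can be read as non-binding.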"}, "[2]": {"biological_target": "GlcNAc(a1-4)Gal(b1-4)GlcNAc", "in_short": "as §1"}, "[3]": {"biological_target": "GlcNAc(a1-4)Gal(b1-4)GlcNAc(b1-3)Gal(b1-4)Glc", "in_short": "as §1"}, "[4]": {"biological_target": "GlcNAc(a1-4)Gal(b1-4)GlcNAc(b1-3)Gal(b1-4)GlcNAc", "in_short": "as §1"}, "[5]": {"biological_target": "GlcNAc(a1-4)Gal(b1-4)GlcNAc(b1-3)Gal(b1-4)GlcNAc(b1-3)Gal(b1-4)GlcNAc", "in_short": "as §1"}, "[6]": {"biological_target": "GlcNAc(a1-4)Gal(b1-4)GlcNAc(b1-3)Gal(b1-4)[Fuc(a1-3)]GlcNAc(b1-3)Gal(b1-4)[Fuc(a1-3)]GlcNAc", "in_short": "as §1"}, "[7]": {"biological_target": "GlcNAc(a1-6)Gal(b1-4)GlcNAc", "in_short": "as §1"}, "GlcNAc(b1-2)Fuc": {"biological_target": "GlcNAc(b1-2)Fuc", "in_short": "as §1"}, "[8]": {"biological_target": "GlcNAc(b1-2)Gal(b1-3)GalNAc", "in_short": "as §1"}, "[9]": {"biological_target": "GlcNAc(b1-2)Man(a1-3)[GlcNAc(b1-2)Man(a1-6)]Man(b1-4)GlcNAc(b1-4)GlcNAc", "in_short": "as §1"}, "[10]": {"biological_target": "GlcNAc(b1-2)Man(a1-3)[GlcNAc(b1-2)Man(a1-6)]Man(b1-4)GlcNAc(b1-4)[Fuc(a1-6)]GlcNAc", "in_short": "as §1"}, "[11]": {"biological_target": "GlcNAc(b1-2)Man(a1-3)[GlcNAc(b1-2)Man(a1-6)][GlcNAc(b1-4)]Man(b1-4)GlcNAc(b1-4)GlcNAc", "in_short": "as §1"}, "[12]": {"biological_target": "GlcNAc(b1-2)Man(a1-3)[GlcNAc(b1-4)][GlcNAc(b1-2)Man(a1-6)]Man(b1-4)GlcNAc(b1-4)GlcNAc", "in_short": "as §1"}, "[13]": {"biological_target": "GlcNAc(b1-2)Man(a1-3)[GlcNAc(b1-4)][GlcNAc(b1-2)Man(a1-6)]Man(b1-4)GlcNAc(b1-4)[Fuc(a1-6)]GlcNAc", "in_short": "as §1"}, "[14]": {"biological_target": "GlcNAc(b1-2)Man(a1-3)[Man(a1-3)[Man(a1-6)]Man(a1-6)][GlcNAc(b1-4)]Man(b1-4)GlcNAc(b1-4)GlcNAc", "in_short": "as §1"}, "[15]": {"biological_target": "GlcNAc(b1-2)[GlcNAc(b1-4)]Man(a1-3)[GlcNAc(b1-2)Man(a1-6)]Man(b1-4)GlcNAc(b1-4)GlcNAc", "in_short": "as §1"}, "[16]": {"biological_target": "GlcNAc(b1-2)[GlcNAc(b1-4)]Man(a1-3)[GlcNAc(b1-2)Man(a1-6)][GlcNAc(b1-4)]Man(b1-4)GlcNAc(b1-4)GlcNAc", "in_short": "as §1"}, "[17]": {"biological_target": "GlcNAc(b1-2)[GlcNAc(b1-4)]Man(a1-3)[GlcNAc(b1-2)[GlcNAc(b1-4)][GlcNAc(b1-6)]Man(a1-6)][GlcNAc(b1-4)]Man(b1-4)GlcNAc(b1-4)GlcNAc", "in_short": "as §1"}, "[18]": {"biological_target": "GlcNAc(b1-2)[GlcNAc(b1-4)]Man(a1-3)[GlcNAc(b1-2)[GlcNAc(b1-6)]Man(a1-6)]Man(b1-4)GlcNAc(b1-4)GlcNAc", "in_short": "as §1"}, "[19]": {"biological_target": "GlcNAc(b1-2)[GlcNAc(b1-4)]Man(a1-3)[GlcNAc(b1-4)][GlcNAc(b1-2)Man(a1-6)]Man(b1-4)GlcNAc(b1-4)GlcNAc", "in_short": "as §1"}, "[20]": {"biological_target": "GlcNAc(b1-2)[GlcNAc(b1-4)]Man(a1-3)[GlcNAc(b1-4)][GlcNAc(b1-2)[GlcNAc(b1-6)]Man(a1-6)]Man(b1-4)GlcNAc(b1-4)GlcNAc", "in_short": "as §1"}, "[21]": {"biological_target": "GlcNAc(b1-2)[GlcNAc(b1-4)]Man(a1-3)[GlcNAc(b1-4)][GlcNAc(b1-2)[GlcNAc(b1-6)]Man(a1-6)]Man(b1-4)GlcNAc(b1-4)[Fuc(a1-6)]GlcNAc", "in_short": "as §1"}},
  "note": "The other results are listed elsewhere or left out.",
  "data": [
    {"binder": "B1", "values": [
      {"measurement": "glycan array binding signal (z-score)", "setting": "[1]", "value": -0.041},
      {"measurement": "glycan array binding signal (z-score)", "setting": "[2]", "value": -0.125},
      {"measurement": "glycan array binding signal (z-score)", "setting": "[3]", "value": 0.007},
      {"measurement": "glycan array binding signal (z-score)", "setting": "[4]", "value": -0.015},
      {"measurement": "glycan array binding signal (z-score)", "setting": "[5]", "value": -0.06},
      {"measurement": "glycan array binding signal (z-score)", "setting": "[6]", "value": 1.74},
      {"measurement": "glycan array binding signal (z-score)", "setting": "[7]", "value": 0.38},
      {"measurement": "glycan array binding signal (z-score)", "setting": "GlcNAc(b1-2)Fuc", "value": -0.32},
      {"measurement": "glycan array binding signal (z-score)", "setting": "[8]", "value": -0.325},
      {"measurement": "glycan array binding signal (z-score)", "setting": "[9]", "value": -0.226},
      {"measurement": "glycan array binding signal (z-score)", "setting": "[10]", "value": 0.392},
      {"measurement": "glycan array binding signal (z-score)", "setting": "[11]", "value": 0.355},
      {"measurement": "glycan array binding signal (z-score)", "setting": "[12]", "value": -0.109},
      {"measurement": "glycan array binding signal (z-score)", "setting": "[13]", "value": -0.189},
      {"measurement": "glycan array binding signal (z-score)", "setting": "[14]", "value": -0.32},
      {"measurement": "glycan array binding signal (z-score)", "setting": "[15]", "value": -0.25},
      {"measurement": "glycan array binding signal (z-score)", "setting": "[16]", "value": -0.32},
      {"measurement": "glycan array binding signal (z-score)", "setting": "[17]", "value": -0.32},
      {"measurement": "glycan array binding signal (z-score)", "setting": "[18]", "value": -0.32},
      {"measurement": "glycan array binding signal (z-score)", "setting": "[19]", "value": 0.115},
      {"measurement": "glycan array binding signal (z-score)", "setting": "[20]", "value": -0.079},
      {"measurement": "glycan array binding signal (z-score)", "setting": "[21]", "value": -0.225}
    ]}
  ]
}
